From patent publication US20040138247A1 (priority 1999, published 2004)
Read-outs that look alike come from different tables or passages of the source.

Key:
[1] = for AUC(l) / AUC(tf) / Cmax: Mean (% CV), N=30; for Relative Bioavailability, AUC(l) / Relative Bioavailability, Cmax: log-transformed
[2] = clinical; conditions: human, plasma, po, 7.5 mg, AUC(tf), oral single dose 7.5 mg tablet, Mean (% CV), N=18
[3] = Treatment A: one 5 mg tablet after 10-hour fast
[4] = Treatment B/Treatment A (syrup fasted vs tablet fasted)
[5] = Treatment B: 10 mL syrup (0.5 mg/mL) after 10-hour fast
[6] = Treatment C/Treatment B (syrup fed vs syrup fasted)
[7] = Treatment C: 10 mL syrup (0.5 mg/mL) after high-fat high-caloric breakfast

Compound | AUC(l) [1, 3] | AUC(tf) [1, 3] | Cmax [1, 3] | Relative Bioavailability, AUC(l) [1, 4] | Relative Bioavailability, Cmax [1, 4] | AUC(l) [1, 5] | AUC(tf) [1, 5] | Cmax [1, 5] | Relative Bioavailability, AUC(l) [1, 6] | Relative Bioavailability, Cmax [1, 6] | AUC(l) [1, 7] | AUC(tf) [1, 7] | Cmax [1, 7] | AUC ([2]; FASTED) | AUC ([2]; FED)
Oc1cnc2c(c1)CCc1cc(Cl)ccc1C2=C1CCNCC1 [3-OH desloratadine] | 29.0 (24) ng · hr/mL | 27.0 (25) ng · hr/mL | 1.06 (34) ng/mL | 94.9% | 96.5% | 27.8 (28) ng · hr/mL | 26.0 (28) ng · hr/mL | 1.03 (38) ng/mL | 101% | 87.2% | 28.3 (31) ng · hr/mL | 25.8 (31) ng · hr/mL | 0.91 (38) ng/mL | – | –
Clc1ccc2c(c1)CCc1cccnc1C2=C1CCNCC1 [desloratadine] | – | – | – | – | – | – | – | – | – | – | – | – | – | 77.5 ng·h/mL | 73.8 ng·h/mL
